Measurements reported in publication PMC10933458.
Results are given in words; binding and its absence hold for the method and conditions named. For some assays here: Binding seen in cells or lysates may run through a third protein. Some entries that bind do so weakly or less than the wild type. For some assays here: Sequences can lack the tags named with a protein. Each block holds one binder with its values, some of them ahead of it.

What was measured:
[1] = biological target: full-length human BRI2 tagged with a 3xFLAG at the N-terminus (3xFLAG-BRI2) (human) (UniProt Q9Y287); assay: co-IP; HEK293 cells transfected with bicistronic plasmids 3xFLAG-BRI2 + TREM2-Myc variants; 3xFLAG-BRI2 precipitated with M2; blot with anti-human TREM2-NT or TREM2-CT; three independent transfections
[2] = biological target: T1, endogenous mouse Trem2 (mouse (endogenous in primary macrophages)) (UniProt Q99NH8); assay: co-IP; endogenous proteins; lysate of WT or Itm2b-KO mouse primary macrophages (0.5% NP40) precipitated with αTrem2-CT and protein A/G agarose; deglycosylated before the blot; done once
T1 sequence: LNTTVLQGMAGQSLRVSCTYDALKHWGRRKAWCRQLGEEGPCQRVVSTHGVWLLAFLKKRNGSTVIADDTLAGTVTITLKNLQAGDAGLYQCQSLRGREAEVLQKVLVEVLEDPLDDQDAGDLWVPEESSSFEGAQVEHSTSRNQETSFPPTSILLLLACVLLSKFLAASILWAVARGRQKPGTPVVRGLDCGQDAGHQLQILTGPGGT

[3] = biological target: recombinant BRI2-BRICHOS (human) (UniProt Q9Y287); assay: pull-down; cell-free; 3xFLAG-tagged BRI2-BRICHOS or BRI2-ECD with sTREM2 or TREM2-ECD, 2 μM each (also 4, 2, 1, 0.5, 0.25 and 0 μM BRI2 protein with 2 μM TREM2 protein), overnight at 4 degrees Celsius with M2-Agarose beads; washed, eluted with 3xFLAG peptide; blot with M2 or TREM2-NT; both purified
[4] = biological target: recombinant BRI2-ECD (human) (UniProt Q9Y287); assay: as above

binding [1]: binds
B3: full-length human TREM2 tagged with a Myc epitope at the C-terminus (TREM2-Myc) (receptor, UniProt Q9NZC2 19-230)
chain: HNTTVFQGVAGQSLQVSCPYDSMKHWGRRKAWCRQLGEKGPCQRVVSTHNLWLLSFLRRWNGSTAITDDTLGGTLTITLRNLQPHDAGLYQCQSLHGSEADTLRKVLVEVLADPLDHRDAGDLWFPGESESFEDAHVEHSISRSLLEGEIPFPPTSILLLLACIFLIKILAASALWAAAWHGQKPGTHPPSELDCGHDPGYQLQTLPGLRDT

binding [2]: binds
B5: endogenous mouse Bri2 (protein, UniProt O89051 1-266)
chain: MVKVTFNSALAQKEAKKDEPKSSEEALIVPPDAVAVDCKDPGDVVPVGQRRAWCWCMCFGLAFMLAGVILGGAYLYKYFALQPDDVYYCGLKYIKDDVILNEPSADAPAARYQTIEENIKIFEEDAVEFISVPVPEFADSDPANIVHDFNKKLTAYLDLNLDKCYVIPLNTSIVMPPKNLLELLINIKAGTYLPQSYLIHEHMVITDRIENVDNLGFFIYRLCHDKETYKLQRRETIRGIQKREASNCFTIRHFENKFAVETLICS

binding [3]: binds | binding [4]: binds
B6: recombinant TREM2-ECD (domain or fragment, UniProt Q9NZC2 19-174)
chain: HNTTVFQGVAGQSLQVSCPYDSMKHWGRRKAWCRQLGEKGPCQRVVSTHNLWLLSFLRRWNGSTAITDDTLGGTLTITLRNLQPHDAGLYQCQSLHGSEADTLRKVLVEVLADPLDHRDAGDLWFPGESESFEDAHVEHSISRSLLEGEIPFPPTS

binding [1]: binds
B7: TREM2-δIg-like-Myc (lacking the Ig-like domain of TREM2 spanning amino acids 29-112) (receptor, UniProt Q9NZC2)
chain: HNTTVFQGVALHGSEADTLRKVLVEVLADPLDHRDAGDLWFPGESESFEDAHVEHSISRSLLEGEIPFPPTSILLLLACIFLIKILAASALWAAAWHGQKPGTHPPSELDCGHDPGYQLQTLPGLRDT

Second part, the binder before the results:

B1: TREM2-δ/α-site-Myc (lacking amino acids 152–163, including the α-secretase cleavage site) (receptor, UniProt Q9NZC2)
chain: HNTTVFQGVAGQSLQVSCPYDSMKHWGRRKAWCRQLGEKGPCQRVVSTHNLWLLSFLRRWNGSTAITDDTLGGTLTITLRNLQPHDAGLYQCQSLHGSEADTLRKVLVEVLADPLDHRDAGDLWFPGESESFELEGEIPFPPTSILLLLACIFLIKILAASALWAAAWHGQKPGTHPPSELDCGHDPGYQLQTLPGLRDT
binding [1]: binds

B2: TREM2-CTF-Myc (comprising amino acids 158-230) (domain or fragment, UniProt Q9NZC2 158-230)
chain: SISRSLLEGEIPFPPTSILLLLACIFLIKILAASALWAAAWHGQKPGTHPPSELDCGHDPGYQLQTLPGLRDT
binding [1]: binds weakly

B4: TREM2-W198Ter-Myc (TREM2 W198Ter variant, a truncated TREM2 protein lacking the intracellular domain) (receptor, UniProt Q9NZC2 19-197)
chain: HNTTVFQGVAGQSLQVSCPYDSMKHWGRRKAWCRQLGEKGPCQRVVSTHNLWLLSFLRRWNGSTAITDDTLGGTLTITLRNLQPHDAGLYQCQSLHGSEADTLRKVLVEVLADPLDHRDAGDLWFPGESESFEDAHVEHSISRSLLEGEIPFPPTSILLLLACIFLIKILAASALWAAA
binding [1]: binds
